For 31 sequences, binding signal results are on record in publication PMC12820563, “FoxP3 forms a head-to-head dimer in vivo and stabilizes its multimerization on adjacent microsatellites”.

The list shows a part of the results.

This test addresses T1, MBP-FoxP1dN (Mus musculus, UniProt P58462 326-579).
T1 sequence: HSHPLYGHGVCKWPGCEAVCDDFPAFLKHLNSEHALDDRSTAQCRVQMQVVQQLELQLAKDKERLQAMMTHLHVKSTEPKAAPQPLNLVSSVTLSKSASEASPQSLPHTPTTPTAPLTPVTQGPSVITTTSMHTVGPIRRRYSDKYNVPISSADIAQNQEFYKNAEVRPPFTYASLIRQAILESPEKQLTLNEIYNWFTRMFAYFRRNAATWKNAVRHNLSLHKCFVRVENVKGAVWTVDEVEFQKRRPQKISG
Nature of the test: PD-seq (MBP pull-down with sequencing); 20 mM Tris-HCl pH 7.5, 100 mM NaCl, 1.5 mM MgCl2, 0.4 uM protein, 0.1 uM dsDNA library, 30 min, room temperature, amylose pull-down; high values mean tight binding. As to conditions: protein: recombinant; tags: His6-MBP; chain copies: 2; dsDNA, one strand shown. In a few lines: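 Mouse FoxP3 or FoxP1 fragment lacking the N-terminus, His6-MBP-tagged and expressed in E. coli, was incubated at 0.4 µM with 0.1 µM Klenow-filled degenerate double-stranded DNA library for 30 min at room temperature in Tris pH 7.5 buffer with NaCl and MgCl2. Complexes captured on amylose resin were washed three times and their DNA sequenced on Illumina. Binding is reads-per-million enrichment of pull-down over input, replicates pooled.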
For the sequence “GATGATTGTTCTCCCAGCTGATGAATTCGCGTCCTCGAGTAAACAAATTTTCCTAATCTTTCTGTTCAAGCGCCATCTAC”, the binding signal was 0.919 RPM ratio (pull-down/input).

As to “GATGATTGTTCTCCCAGCTGATGAATTGACGCGATCGAGTAAACAAATTTTCCTAATCTTTCTGTTCAAGCGCCATCTAC”, the binding signal is 1.13 RPM ratio (pull-down/input).

Take “GATGATTGTTCTCCCAGCTGATGAATTCTTGGCCTCGAGTAAACAAATTTTCCTAATCTTTCTGTTCAAGCGCCATCTAC”: the binding signal was 0.832 RPM ratio (pull-down/input).

As to “GATGATTGTTCTCCCAGCTGATGAATTGCATGCCTCGAGTAAACAAATTTTCCTAATCTTTCTGTTCAAGCGCCATCTAC”, the binding signal was 1.17 RPM ratio (pull-down/input).

For the sequence “GATGATTGTTCTCCCAGCTGATGAATTAGTCGTTTCGAGTAAACAAATTTTCCTAATCTTTCTGTTCAAGCGCCATCTAC”, the binding signal is 0.963 RPM ratio (pull-down/input).

As to “GATGATTGTTCTCCCAGCTGATGAATTGCCAAATTCGAGTAAACAAATTTTCCTAATCTTTCTGTTCAAGCGCCATCTAC”, the binding signal was 1.1 RPM ratio (pull-down/input).

Consider “GATGATTGTTCTCCCAGCTGATGAATTGCGGTCTTCGAGTAAACAAATTTTCCTAATCTTTCTGTTCAAGCGCCATCTAC”, for which the binding signal was 0.952 RPM ratio (pull-down/input).

As to “GATGATTGTTCTCCCAGCTGATGAATTCGTGGTATCGAGTAAACAAATTTTCCTAATCTTTCTGTTCAAGCGCCATCTAC”, the binding signal is 0.965 RPM ratio (pull-down/input).

With “GATGATTGTTCTCCCAGCTGATGAATTCGAACTCTCGAGTAAACAAATTTTCCTAATCTTTCTGTTCAAGCGCCATCTAC”, the binding signal was 0.769 RPM ratio (pull-down/input).

Turning to “GATGATTGTTCTCCCAGCTGATGAATTTGATCGGTCGAGTAAACAAATTTTCCTAATCTTTCTGTTCAAGCGCCATCTAC”, the binding signal is 0.807 RPM ratio (pull-down/input).

Regarding “GATGATTGTTCTCCCAGCTGATGAATTAAATGTGTCGAGTAAACAAATTTTCCTAATCTTTCTGTTCAAGCGCCATCTAC”, the binding signal was 1.02 RPM ratio (pull-down/input).

For the sequence “GATGATTGTTCTCCCAGCTGATGAATTGGGGGCATCGAGTAAACAAATTTTCCTAATCTTTCTGTTCAAGCGCCATCTAC”, the binding signal is 1.01 RPM ratio (pull-down/input).

For “GATGATTGTTCTCCCAGCTGATGAATTTCGATGGTCGAGTAAACAAATTTTCCTAATCTTTCTGTTCAAGCGCCATCTAC”, the binding signal was 0.888 RPM ratio (pull-down/input).

On to “GATGATTGTTCTCCCAGCTGATGAATTCACCGTTTCGAGTAAACAAATTTTCCTAATCTTTCTGTTCAAGCGCCATCTAC”, for which the binding signal was 0.982 RPM ratio (pull-down/input).

As for “GATGATTGTTCTCCCAGCTGATGAATTACGGGGATCGAGTAAACAAATTTTCCTAATCTTTCTGTTCAAGCGCCATCTAC”, the binding signal was 0.883 RPM ratio (pull-down/input).

In the case of “GATGATTGTTCTCCCAGCTGATGAATTCACCAATTCGAGTAAACAAATTTTCCTAATCTTTCTGTTCAAGCGCCATCTAC”, the binding signal is 1.02 RPM ratio (pull-down/input).

Consider “GATGATTGTTCTCCCAGCTGATGAATTGACTATTTCGAGTAAACAAATTTTCCTAATCTTTCTGTTCAAGCGCCATCTAC”, for which the binding signal was 1.19 RPM ratio (pull-down/input).

As to “GATGATTGTTCTCCCAGCTGATGAATTATGGTGATCGAGTAAACAAATTTTCCTAATCTTTCTGTTCAAGCGCCATCTAC”, the binding signal is 1.03 RPM ratio (pull-down/input).

As to “GATGATTGTTCTCCCAGCTGATGAATTGAATTCCTCGAGTAAACAAATTTTCCTAATCTTTCTGTTCAAGCGCCATCTAC”, the binding signal was 0.804 RPM ratio (pull-down/input).

Regarding “GATGATTGTTCTCCCAGCTGATGAATTATGTGAATCGAGTAAACAAATTTTCCTAATCTTTCTGTTCAAGCGCCATCTAC”, the binding signal is 1.14 RPM ratio (pull-down/input).

Take “GATGATTGTTCTCCCAGCTGATGAATTCGTTACGTCGAGTAAACAAATTTTCCTAATCTTTCTGTTCAAGCGCCATCTAC”: the binding signal was 1.03 RPM ratio (pull-down/input).

As to “GATGATTGTTCTCCCAGCTGATGAATTGGGCGTGTCGAGTAAACAAATTTTCCTAATCTTTCTGTTCAAGCGCCATCTAC”, the binding signal is 0.85 RPM ratio (pull-down/input).

As to “GATGATTGTTCTCCCAGCTGATGAATTCCCCTCTTCGAGTAAACAAATTTTCCTAATCTTTCTGTTCAAGCGCCATCTAC”, the binding signal is 0.821 RPM ratio (pull-down/input).

With “GATGATTGTTCTCCCAGCTGATGAATTCATAGCTTCGAGTAAACAAATTTTCCTAATCTTTCTGTTCAAGCGCCATCTAC”, the binding signal is 0.837 RPM ratio (pull-down/input).

On to “GATGATTGTTCTCCCAGCTGATGAATTCAATTGCTCGAGTAAACAAATTTTCCTAATCTTTCTGTTCAAGCGCCATCTAC”, for which the binding signal is 0.952 RPM ratio (pull-down/input).

Regarding “GATGATTGTTCTCCCAGCTGATGAATTCCAAGACTCGAGTAAACAAATTTTCCTAATCTTTCTGTTCAAGCGCCATCTAC”, the binding signal was 0.757 RPM ratio (pull-down/input).

For the sequence “GATGATTGTTCTCCCAGCTGATGAATTCGTAACATCGAGTAAACAAATTTTCCTAATCTTTCTGTTCAAGCGCCATCTAC”, the binding signal is 1.13 RPM ratio (pull-down/input).

Regarding “GATGATTGTTCTCCCAGCTGATGAATTTCGGTCTTCGAGTAAACAAATTTTCCTAATCTTTCTGTTCAAGCGCCATCTAC”, the binding signal is 0.868 RPM ratio (pull-down/input).

For “GATGATTGTTCTCCCAGCTGATGAATTGAGATTCTCGAGTAAACAAATTTTCCTAATCTTTCTGTTCAAGCGCCATCTAC”, the binding signal is 0.714 RPM ratio (pull-down/input).

For “GATGATTGTTCTCCCAGCTGATGAATTGTCTGCGTCGAGTAAACAAATTTTCCTAATCTTTCTGTTCAAGCGCCATCTAC”, the binding signal was 1.06 RPM ratio (pull-down/input).

Turning to “GATGATTGTTCTCCCAGCTGATGAATTCGAGAGGTCGAGTAAACAAATTTTCCTAATCTTTCTGTTCAAGCGCCATCTAC”, the binding signal is 0.698 RPM ratio (pull-down/input).
